According to PubChem BioAssay AID759 (NMMLSC, 2007):
About 270 (0.14%) of roughly 190,000 compounds were called active. This list was built around the results that the source calls inconclusive (neither active nor inactive); the mix of calls is not that of the screen.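 The calls were made as follows: active = GTP binding activity at least 20% away from the 100% baseline, either lowered as inhibitor or raised as activator; inconclusive = flagged as likely green fluorescent, judged across all proteins in the well; inactive = the rest.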

What follows are compounds tested against GTPase HRas (Homo sapiens) (UniProt P01112) (assay: HRas wt fluorescent GTP binding changes, either direction – biochemical, wildtype, bead-based flow cytometry, multiplex, primary screen (AID 759;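 also: 0% = unlabeled GTP competition control and 100% = no-compound control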)). Details: GST-Ras wt beads, Bodipy-FL-GTP binding, at 10 µM, actives lie on both sides.
Sequence of UniProt P01112 (P01112 whole entry, looked up): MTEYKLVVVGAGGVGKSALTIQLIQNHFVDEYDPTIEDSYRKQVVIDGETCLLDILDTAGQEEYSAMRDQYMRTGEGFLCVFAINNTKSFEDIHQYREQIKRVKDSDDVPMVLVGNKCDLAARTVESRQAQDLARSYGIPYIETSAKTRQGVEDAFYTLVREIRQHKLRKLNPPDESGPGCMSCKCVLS

Compound | GTP binding activity
CS(=O)(=O)c1ccc(Cl)c(NC(=O)c2ccc3ccccc3c2)c1 | inactive: 102%
Fc1ccc(-n2nnc(-c3cnc4ccccc4c3)n2)cc1 | inactive: 98%
NC(=O)N=Nc1c(O)[nH]c2c(Br)cc(Br)cc12 | active: 78%
Cc1cccc2nc(CSc3nc4ccccc4[nH]3)cn12 | inconclusive: 95%
CCc1nnc(NC(=O)CCC(=O)N2CCN(c3ccccn3)CC2)s1 | inconclusive: 37%
CCOC(=O)Nc1nc(C)c(C(=O)c2ccc(Cl)cc2)s1 | inconclusive: 106%
O=C(NNc1nc(-c2ccccc2)c2cc(Br)ccc2n1)c1ccc(S(=O)(=O)N2CCCCC2)cc1 | inactive: 95%
Oc1ccc(/C=N/NC(=S)N/N=C/c2ccc(O)cc2)cc1 | inactive: 87%
O=C(CSc1ncnc2c1cnn2-c1ccc(F)cc1)NCc1ccc2c(c1)OCO2 | inconclusive: 92%
Cc1cc(NC(=O)C2CC2)n(-c2nc3ccccc3s2)n1 | inconclusive: 93%
COc1ccc(CCC(C)Nc2ccccc2F)cc1 (centres undefined) | inconclusive: 104%
COc1ccc(-c2nc3ncccn3c2Br)cc1 | inconclusive: 93%
Cc1c2ccccc2nc2c(F)c(NCCO)c(F)c(F)c12 | inconclusive: 97%
COc1cccc(/C=N/Nc2ccc(C(=O)O)cc2)c1O | inactive: 95%
O=C(N/N=C/c1cc2c3c(c1O)CCCN3CCC2)c1ccccc1O | inconclusive: 96%
COc1cccc(-n2c(SCC(=O)NCCc3ccccc3)nnc2-c2ccoc2C)c1 | inconclusive: 105%
COCc1c(CCl)cnc(C)c1O | inconclusive: 91%
CCOC(=O)C1CCCCN1Cc1cc(OC)ccc1OC (centres undefined) | inconclusive: 104%
CCOC(=O)C(C(=O)OCC)C(C)C#CCN1CCCCC1 (centres undefined) | inconclusive: 105%
CCC(=O)N/C(=N/c1nc(C)cc(C)n1)Nc1cccc(OC)c1 | inconclusive: 105%
O=C(CCCCCNC(=O)c1ccccc1)N=Nc1c(O)[nH]c2c(Br)cc(Br)cc12 | inactive: 97%
O=C(Cn1cnc2cc([N+](=O)[O-])ccc2c1=O)Nc1cccc(S(=O)(=O)N2CCOCC2)c1 | inconclusive: 94%
Cc1cccc(-n2c(C)cc(/C=C3\C(=N)N4N=C(CC(C)C)SC4=NC3=O)c2C)c1 | inconclusive: 90%
CN(Cc1ccccc1)S(=O)(=O)c1ccc(OCC(=O)Nc2cccc([N+](=O)[O-])c2)cc1 | inconclusive: 102%

Compound | GTP binding activity
Cc1ccc(NC(=O)Nc2ccnc(-c3cccnc3)n2)cc1 | active: 67%
CC(=O)Nc1ccc(C2=NNC(=Nc3cccc(S(=O)(=O)N(C)C)c3)SC2)cc1 | inconclusive: 94%
O=C(COC(=O)c1ccc(S(=O)(=O)N2CCCC2)cc1)NCc1ccccc1 | inconclusive: 83%
COc1ccc(S(=O)(=O)N2CCOCC2)cc1C(=O)Nc1nc2ccccc2s1 | active: 75%
Cc1cc(C)c(OCC(=O)Nc2nc3ccccc3[nH]2)c(C)c1 | inconclusive: 93%
COc1cc(NS(C)(=O)=O)c(OC)cc1NC(=O)c1ccccc1 | inconclusive: 102%
CCCN=C1CC(C)(C)CC(=O)/C1=C(/O)CCCN1C(=O)c2ccccc2C1=O | inconclusive: 96%
CC(=O)N1N=C(c2ccc3nccnc3c2)CC1c1ccccc1 (centres undefined) | inconclusive: 107%
O=c1cnc2cc([N+](=O)[O-])ccc2[nH]1 | inactive: 93%
NC(=S)n1[nH]c(-c2ccc([N+](=O)[O-])cc2)c(N=Nc2cccc([N+](=O)[O-])c2)c1=O | inconclusive: 88%
COc1ccc(N2C(=O)CN=C2Nc2nc(C)cc(C)n2)cc1OC | inconclusive: 103%
COc1ccc(OC2C(=O)N(Cc3ccc4c(c3)OCO4)C2c2sccc2C)cc1 (centres undefined) | inconclusive: 102%
COc1ccccc1N1CCN(C(=O)c2ccc(C(C)(C)C)cc2)CC1 | inconclusive: 106%
CCOC(=O)N1CCN(C(=O)Cn2c(=O)sc3ccccc32)CC1 | inconclusive: 101%
COCCNC(=O)c1ccc(C(=O)C(=O)c2ccccc2)cc1 | inconclusive: 102%
Nn1c(Cc2cccc3ccccc23)n[nH]c1=S | inconclusive: 96%
O=C(c1ccccc1)c1cccn1CC(=O)N1CCCCCC1 | inconclusive: 102%
Cc1nc2nc(SCC(=O)N3CCOCC3)nn2c(C)c1Cc1ccccc1 | inconclusive: 102%
O=C(Nc1cccnc1N1CCOCC1)c1ccco1 | inconclusive: 101%
CCC(=O)Nc1ccc2c(c1)ncn2-c1ccccc1OC | inconclusive: 107%
Oc1c(C=Nc2ccccc2)sc(=S)n1Cc1ccccc1 | inconclusive: 118%
Cc1cc(C(=O)OCC(=O)Nc2ccc(F)cc2F)c(C)o1 | inconclusive: 103%
CSc1ccccc1C(=O)Nc1nccs1 | inconclusive: 104%
O=C(Oc1ccc2c(c1)OCO2)c1ccc(Br)c(S(=O)(=O)N2CCOCC2)c1 | inconclusive: 92%

Compound | GTP binding activity
Cc1ccc(N2CCN(C(=O)N3CCOCC3)CC2)c(C)c1 | inconclusive: 89%
CCOC(=O)c1c(-c2cccs2)csc1NC(=O)c1ccncc1 | inconclusive: 108%
CCc1c(O)nc(SCC(=O)N(CC)CC)[nH]c1=O | inactive: 94%
Cc1ccc(NCc2nnc(SCCN3CCCCC3)n2CC2CCCO2)c(C)c1 (centres undefined) | inactive: 97%
O=C(/C=C/c1ccco1)Nc1ccc(-c2nc3ccccc3[nH]2)cc1 | inconclusive: 161%
CC1CCN(S(=O)(=O)c2ccc(C(=O)NNC(=O)C3CC3)cc2)CC1 | inactive: 91%
CCOC(=O)c1c(-c2ccc(C)cc2)csc1NC(=O)/C(C#N)=C/c1ccc(O)c(OC)c1 | inconclusive: 123%
O=C(NNc1nc2c(F)cccc2s1)c1cc(=O)c2ccccc2o1 | inactive: 86%
COCCNC(=S)N/N=C(\C)c1cccc(OC)c1 | inactive: 98%
COc1ccccc1/C=C/C(=O)NNC(=O)c1cccs1 | inactive: 96%
Nc1nc(SCc2ccc(Cl)c(Cl)c2)n[nH]1 | inconclusive: 98%
CCOc1ccccc1OCCCOc1ccc(C)cc1Cl | inconclusive: 93%
O=[N+]([O-])c1cccc(Nc2nc(Cl)nc(Cl)n2)c1 | inconclusive: 88%
CCOc1ccc(N2CC(C(=O)Nc3ccc4c(c3)OCO4)CC2=O)cc1 (centres undefined) | inconclusive: 98%
CC(=O)Nc1ccc(-c2ccc3nnc(C)n3n2)cc1 | inactive: 92%
O=C(CSc1ncn[nH]1)N1CCOCC1 | inactive: 97%
COc1ccc2nc(C)cc(SCC(=O)N/N=C/c3ccc(O)c(O)c3)c2c1 | active: 72%
O=C(CCNC(=O)c1ccccc1)Nc1cccnc1 | inactive: 96%
O=C(Nc1ccccc1N1CCCC1)c1ccc([N+](=O)[O-])cc1Cl | inactive: 95%
O=C(O)c1ccccc1C(=O)OCc1ccccc1 | active: 136% [activator]
Cc1ccc(Oc2nc(-c3cccnc3)nc3ccccc23)c([N+](=O)[O-])n1 | inconclusive: 92%
Nc1nc(SCC(=O)c2cc(F)ccc2F)n[nH]1 | inconclusive: 94%
O=C(CCn1nc(-c2ccc(Cl)cc2)ccc1=O)N1CCN(c2ccccn2)CC1 | inconclusive: 106%
CC(C)CCNC(=O)CCCOc1cc(=O)n(C)c2ccccc12 | inconclusive: 94%

Compound | GTP binding activity
COCCNC(=O)Cn1c(=O)n(Cc2ccco2)c(=O)c2ccccc21 | inconclusive: 104%
O=C(c1cc[n+]([O-])cc1)N1CCc2c([nH]c3ccccc23)C1c1ccccc1Cl (centres undefined) | inconclusive: 95%
CC(C)C12CN3CC(C(C)C)(CN(C1)C3c1ccco1)C2=O (centres undefined) | inconclusive: 112%
O=C1OC(/C(=C\Nc2cc(Cl)ccc2O)[N+](=O)[O-])c2ccccc21 (centres undefined) | inconclusive: 93%
C/C=C/c1ccc(OCC(=O)Nc2ccc(C(N)=O)cc2)c(OC)c1 | inconclusive: 91%
Cc1cc(C)cc(N=Cc2[nH]c3ccc(Br)c(Cl)c3c2O)c1 | inconclusive: 171%
COC(=O)c1ccc(COc2ccc(/C=C(\C#N)c3nc4ccccc4[nH]3)cc2OC)o1 | inactive: 99%
Cc1ccc(C(=O)N2CCCC(c3ccc(Cl)cc3)=N2)cc1 | inactive: 99%
Nc1nc(N2CCN(c3ccc(F)cc3)CC2)n[nH]1 | inactive: 97%
Cc1[nH]n2c(=O)c3c(nc2c1-c1ccc(F)cc1)CCCC3 | inactive: 87%
Cn1c(=O)c2ncn(CC(=O)N=Nc3c(O)[nH]c4ccccc34)c2n(C)c1=O | inconclusive: 87%
Cc1cccc(C2=NNC(=O)C(c3ccc(Cl)cc3)C2)c1 (centres undefined) | inconclusive: 90%
CSc1ccc(/C=N\NC(=O)CC(=O)NC(C)C)cc1 | inactive: 94%
CCOC(=O)C1(Cc2ccc(OC)cc2)CCN(C(=O)c2cc3ccccc3[nH]2)CC1 | inconclusive: 89%
COc1ccc(CNC2CCCCC2)cc1 | inconclusive: 105%
CC1CN(C(=O)CCN2C(=O)c3ccccc3C2=O)CC(C)O1 (centres undefined) | inactive: 95%
CCOc1ccc(NC(C)C(=O)N/N=C/c2ccc([N+](=O)[O-])cc2)cc1 (centres undefined) | inactive: 99%
COc1ccc(OC)c(C2=Nn3c(nnc3-c3ccco3)SC2)c1 | inconclusive: 94%
O=c1c2ccccc2nc2c3ccccc3c3nncn3n12 | inconclusive: 83%
CC(C)Cn1c(N)c(S(=O)(=O)c2cccs2)c2nc3ccccc3nc21 | inactive: 100%
COc1ccc(NC(=O)c2cc3c(-c4ccc(OC)c(OC)c4)nn(C)c3s2)cc1OC | inconclusive: 89%
Cc1ccc(S(=O)(=O)N2CCC(C(=O)Nc3nnc(C45CC6CC(CC(C6)C4)C5)s3)CC2)cc1 | inconclusive: 107%
